From the antibiotic and cytotoxicity screens of Wong et al. (2023)
The other results are listed elsewhere or left out.

The molecules below were run on HepG2 (assay: cytotoxicity call (relative viability < 0.9)). Conditions: 10 µM.
With C[C@H](CO)N1C[C@H](C)[C@@H](CN(C)Cc2ccc(C(=O)Nc3ccccc3N)cc2)Oc2c(NC(=O)Nc3ccc(F)cc3)cccc2C1=O the cytotoxicity call was “inactive”.
With C[C@H](CO)N1C[C@H](C)[C@H](CN(C)S(=O)(=O)c2ccccc2)Oc2c(NS(C)(=O)=O)cccc2C1=O the cytotoxicity call was “inactive”.
In the case of COc1ccc(S(=O)(=O)Nc2ccc3c(c2)CC(=O)N([C@H](C)CO)C[C@H](C)[C@H](CN(C)S(C)(=O)=O)O3)cc1, the cytotoxicity call is reported as “inactive”.
In the case of Cc1ccc(S(=O)(=O)N(C)C[C@@H]2OCCCC[C@H](C)Oc3ccc(NC(=O)Nc4ccc(F)cc4)cc3C(=O)N([C@H](C)CO)C[C@@H]2C)cc1, the cytotoxicity call is reported as “inactive”.
With C[C@@H]1CN([C@H](C)CO)C(=O)c2cc(NS(C)(=O)=O)ccc2O[C@H]1CN(C)S(=O)(=O)c1ccccc1 the cytotoxicity call was “inactive”.
With CCn1c(C)cc(C)c(C(=O)N2C[C@H]3C(=O)NC[C@@]3(C(=O)O)C2)c1=O the cytotoxicity call was “inactive”.
For COCCn1c(=NN)[nH]c2ccsc2c1=O, the cytotoxicity call was “inactive”.
In the case of C[C@H]1CN([C@@H](C)CO)C(=O)CCCn2nncc2CO[C@H]1CN(C)C(=O)Nc1ccc(N2CCN(C)CC2)cc1, the cytotoxicity call is reported as “inactive”.
With C[C@@H]1CN([C@@H](C)CO)C(=O)c2c(c3ccccc3n2C)-c2ccccc2CO[C@@H]1CN(C)C(=O)Nc1ccccc1 the cytotoxicity call was “inactive”.
CS(=O)(=O)Nc1ccc2c(c1)[C@H]1C[C@H](CC(=O)NCC3CC3)O[C@@H](CO)[C@H]1O2 was tested, and the cytotoxicity call was “inactive”.
With C[C@@H]1CN([C@@H](C)CO)S(=O)(=O)c2ccc(-c3ccc(C(=O)N(C)C)cc3)cc2O[C@@H]1CN(C)C(=O)Cc1ccccn1 the cytotoxicity call was “inactive”.
